# Measurements taken from paper PMC4336329 (PLoS ONE, 2015).
# In all, about 310,000 compounds went through this assay and about 2,200 (0.71%) showed an effect of 50% or more. Effects have a minus sign here. Some of the results follow.
# Biological target: human ether-à-go-go-related gene (hERG) potassium channel (human, UniProt Q12809)
# Experiment: primary screen, population patch clamp on CHO cells stably expressing hERG
# Chain of human ether-à-go-go-related gene (hERG) potassium channel (Q12809 whole entry, looked up): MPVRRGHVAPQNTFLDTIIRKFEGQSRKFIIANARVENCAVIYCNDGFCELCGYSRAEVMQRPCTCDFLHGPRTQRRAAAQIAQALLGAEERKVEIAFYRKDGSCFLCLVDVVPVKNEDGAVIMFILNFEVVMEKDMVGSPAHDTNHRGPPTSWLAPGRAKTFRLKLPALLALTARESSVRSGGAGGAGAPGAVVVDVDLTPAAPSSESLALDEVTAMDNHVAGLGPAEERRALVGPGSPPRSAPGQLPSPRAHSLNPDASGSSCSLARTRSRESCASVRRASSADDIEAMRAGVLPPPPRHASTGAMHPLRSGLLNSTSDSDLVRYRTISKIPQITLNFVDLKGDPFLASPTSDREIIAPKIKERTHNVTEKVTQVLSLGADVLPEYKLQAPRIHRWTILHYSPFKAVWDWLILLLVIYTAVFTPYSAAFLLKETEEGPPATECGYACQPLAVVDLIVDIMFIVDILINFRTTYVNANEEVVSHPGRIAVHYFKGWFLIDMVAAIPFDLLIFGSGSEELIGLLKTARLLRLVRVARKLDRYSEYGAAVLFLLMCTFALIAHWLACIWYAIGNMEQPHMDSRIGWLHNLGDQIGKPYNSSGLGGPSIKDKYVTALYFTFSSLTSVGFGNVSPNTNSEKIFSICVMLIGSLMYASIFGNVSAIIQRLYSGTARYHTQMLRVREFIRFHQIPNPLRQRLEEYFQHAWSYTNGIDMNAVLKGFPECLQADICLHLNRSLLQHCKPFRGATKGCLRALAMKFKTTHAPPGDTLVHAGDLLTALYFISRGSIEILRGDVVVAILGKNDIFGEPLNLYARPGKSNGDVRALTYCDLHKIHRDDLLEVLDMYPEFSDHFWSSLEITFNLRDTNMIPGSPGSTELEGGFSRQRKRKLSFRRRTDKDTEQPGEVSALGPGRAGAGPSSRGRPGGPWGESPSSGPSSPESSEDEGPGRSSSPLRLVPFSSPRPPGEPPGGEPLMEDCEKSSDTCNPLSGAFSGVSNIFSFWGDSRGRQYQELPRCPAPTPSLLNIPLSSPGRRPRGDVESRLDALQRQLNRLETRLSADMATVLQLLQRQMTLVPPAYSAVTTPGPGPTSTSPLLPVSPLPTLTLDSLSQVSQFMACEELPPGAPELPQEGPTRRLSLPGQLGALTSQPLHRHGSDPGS
row,SMILES,"hERG current change (%, negative = inhibition) at 1uM [%]"
1,CCc1ccc(S(=O)(=O)N2CCN(c3ncccn3)CC2)cc1,16.2
2,CCOC(=O)c1oc2ccc(CNC(C)(C)C)c(Cl)c2c1C.O=C(O)C(=O)O,8.1
3,O=C(Cc1c(F)cccc1Cl)Nc1ccncc1,0.395
4,COc1ccc(C(=O)NCC23C=CC(O2)C2C(=O)N(Cc4ccccc4)C(=O)C23)cc1 (stereo not shown),-11.2
5,Cc1ccc(S(=O)(=O)Nc2ccccc2C(=O)NCC2CCCO2)cc1 (stereo not shown),7.49
6,O=C(Nc1ccc(S(=O)(=O)N2CCCC2)cc1)C1CCCCC1,8.94
7,CN(C)CCn1c(=O)n(C2CCCCC2)c(=O)c2c3c(sc21)CCCCC3,-0.636
8,COC(=O)Cn1c(=O)c2c(nc(Br)n2Cc2ccccc2Cl)n(C)c1=O,2.48
9,Cc1ccc(SCC(=O)OCC(=O)N(C)CC(=O)Nc2ccc(F)cc2)cc1C,3.82
10,Cc1cc(OCC(=O)Nc2cccc(S(=O)(=O)N3CCCCC3)c2)ccc1Cl,9.7
11,CN1C(=S)SC2CS(=O)(=O)CC21C (stereo not shown),6.95
12,Cc1cc2oc(=O)cc(Cn3ccnc3)c2cc1Cl,12.3
13,CCCOc1ccc2oc(=O)c3c(c2c1)CCCN3C(=O)CN1CCN(c2ncccn2)CC1,-18.7
14,Cc1ccc(C(=O)Nc2ccc(S(=O)(=O)N3CCc4ccccc4C3)cc2)o1,1.08
15,COc1cc(OC)cc(-c2cc3nc(C4CCN(C(=O)OC(C)(C)C)CC4)cc(=O)n3[nH]2)c1,4.02
16,O=C(CSc1nnc(-c2ccccc2)c2ccccc12)NCCN1C(=O)CSC1=O,-2.85
17,O=C(OCC(=O)N1CCN(C(=O)c2ccco2)CC1)c1cc(-c2cccc(Br)c2)nc2ccccc12,-14.2
18,CN(CC(=O)Nc1ccc(Cl)c(Cl)c1)C(=O)/C=C/c1ccc(F)cc1,5.65
19,Cc1ccc(C(=O)c2cc([N+](=O)[O-])ccc2N2CCOCC2)cc1C,14.4
20,C=CCN1C(=O)C(CC(=O)O)SC1=Nc1ccc(C)cc1 (stereo not shown),13.3
21,CCC(=O)c1ccc(OC)c(OC)c1O,6.78
22,O=C1[C@H]2[C@@H](c3ccc(F)cc3)N3C(=O)N(c4ccc(C(F)(F)F)cc4)C(=O)[C@@]3(Cc3ccccc3)[C@H]2C(=O)N1C1CCCCC1,12.7

row,SMILES,"hERG current change (%, negative = inhibition) at 1uM [%]"
1,Cc1ccc2nc(-c3ccncc3)cc(C(=O)Nc3ccc4c(c3)OCCO4)c2c1,7.75
2,COc1ccc(-c2cc(C(=O)N3CCCCCC3)no2)cc1OC,17.8
3,COc1ccc(O)c(C(=O)c2cc(C#N)c(=O)n(Cc3ccccc3)c2)c1,8.35
4,C#CC1(NC(=O)NC(C)C)CCCCC1,6.28
5,CC(=O)c1nn(-c2cccc(C(F)(F)F)c2)c(=O)[nH]c1=O,10.5
6,COc1ccc([N+](=O)[O-])cc1NC(=O)Nc1ccc(OC)c(OC)c1,5.9
7,O=C(CN1C(=O)c2ccccc2C1=O)NCCc1c[nH]c2ccccc12,2.22
8,CCOc1ccccc1C(=O)NCC(=O)O,20
9,CC(C)NC(=O)C1CCCN(S(=O)(=O)c2ccc(-n3cnnn3)cc2)C1 (stereo not shown),8.86
10,CCc1cc(C(=O)OC)c(NC(=O)CN2CCN(C(=O)c3ccco3)CC2)s1,-12.5
11,CCCCn1c(O)c(C(=O)/C=C/c2c[nH]c3ccccc23)c(=O)[nH]c1=O,4.16
12,O=C(COc1ccc(Br)cc1)Nc1ccccc1C(=O)NC1CC1,10
13,O=C(c1ccc([N+](=O)[O-])o1)N(Cc1nnc(-c2ccccc2Cl)o1)C1CC1,3.35
14,O=C(/C=C1\SC(=O)NC1=O)Nc1ccc(C(=O)O)cc1,11.9
15,Cc1nn(-c2ccccc2)c2nc(N)c(C(N)=O)cc12,12.3
16,O=C1c2ccccc2CCC12N=NCC2c1ccccc1 (stereo not shown),-8.49
17,CC(C)Oc1nc(-c2ccccc2O)nc2ccccc12,8.54
18,Cc1nc2ccc(NC(=O)N(C)c3ccccc3)cc2s1,-0.205
19,O=C(CN(C(=O)CCC(=O)Nc1ccccn1)c1ccccc1F)NCc1ccc2c(c1)OCO2,9.34
20,CC(C)(C)S(=O)(=O)c1c(C(=O)O)cccc1C(=O)O,5.13
21,Cc1cccc(C(=O)NCCCNC(=O)c2ccc(C)nc2)c1,10.6
22,C/C(CCC(=O)O)=N/Nc1ccc([N+](=O)[O-])cc1[N+](=O)[O-],-3.18

row,SMILES,"hERG current change (%, negative = inhibition) at 1uM [%]"
1,Cc1cc(C)c(C)c(S(=O)(=O)NCCCN2CCOCC2)c1C,13.6
2,O=C(Nc1c[nH]c2c(Cl)cccc2c1=O)N1CCN(c2ccccn2)CC1,17
3,Cc1c(C(=O)N2CCN(Cc3ccc4c(c3)OCO4)CC2)cccc1[N+](=O)[O-],4.18
4,Fc1cccc(Nc2nc(N3CCOCC3)nc(N3CCOCC3)n2)c1,6.73
5,CS(=O)(=O)Nc1ccc(C(=O)NCc2ccccn2)cc1,11
6,O=C(c1cc(-c2cccnc2)nc2ccccc12)N1CCCc2ccccc21,5.69
7,COc1ccccc1CNS(=O)(=O)c1ccc2c(c1)NC(=O)C(C)S2 (stereo not shown),1.23
8,CC(CNC(=O)CN1C(=O)NC2(CCCCC2)C1=O)c1ccccc1 (stereo not shown),4.87
9,CCn1c(NC(=O)C(C)C)c(-c2cccs2)c(=O)c2ccccc21,11.3
10,COc1ccc(CCNC(=O)[C@H](C)NC(=O)[C@@H]2CSC3c4ccccc4C(=O)N32)cc1 (stereo partly shown),9.13
11,CC(C)N1CCN(Cc2cccn2-c2ccccn2)CC1CCO (stereo not shown),-16
12,Cc1ccc(CS(=O)(=O)Cc2ccc(C(=O)NCC3CCCO3)o2)cc1 (stereo not shown),12.1
13,CCCS(=O)(=O)N1CCC(C(=O)NCCc2ccccc2)CC1,7.22
14,N#C/C(=C(/O)c1ccc(Br)s1)c1nc2ccccc2[nH]1,11.7
15,Nc1nncn1C(=O)c1ccccc1Cl,9.68
16,O=C(CCCCn1c(=O)c2ccccc2n(CC(=O)NC2CCCC2)c1=O)NC1CCCC1,10.8
17,O=C(COC(=O)CCC(=O)c1cccs1)Nc1cccc(F)c1,9.11
18,CCCSc1nc(SCC(=O)NCc2ccccc2)c2c3c(sc2n1)COC(C)(C)C3,7.08
19,Oc1ccccc1-c1cc(-c2ccco2)[nH]n1,11.4
20,CCC(=O)c1ccc(OCc2ccc(C#N)cc2)cc1,19.5
21,Cc1ccc(S(=O)(=O)N/N=C\c2cc3c(cc2[N+](=O)[O-])OCO3)cc1,18
22,COc1ccccc1Nc1nc(N)nc(CN2CCN(Cc3ccc4c(c3)OCO4)CC2)n1,-79.8

row,SMILES,"hERG current change (%, negative = inhibition) at 1uM [%]"
1,COc1ccccc1-n1nnnc1SCC(=O)Nc1oc(C)c2c(C)n[nH]c(=O)c12,10.9
2,CC(C)Sc1cc(N2CCCC2)nc(-c2ccccc2)n1,-26
3,C/C(CC(=O)Nc1ccc2c(c1)OCCO2)=N\NC(=O)COc1ccc(C)cc1,10.1
4,CCNc1sc(C(=O)c2cccs2)c(N)c1-c1nc2ccccc2s1,15.9
5,CN(C)c1ccc(P(=O)(CC(=O)N/N=C/c2ccc(C#N)cc2)OCCCl)cc1 (stereo not shown),0.413
6,Cc1ccc(C)c(S(=O)(=O)C(C#N)c2nc3ccccc3nc2N2CC(C)OC(C)C2)c1 (stereo not shown),4.08
7,O=C(COc1ccc(C2SCCS2)cc1)NNC(=O)C(Cl)Cl,15.2
8,Cc1ccc(Sc2nc(-c3ccccc3)ccc2C#N)cc1,8.67
9,O=C(Nc1cccc(C(F)(F)F)c1)c1ccccc1NC(=O)C1CCCCC1,7.46
10,CN(C)/C=C(\C(=O)c1cccc(Cl)c1)c1nnnn1-c1ccccc1,14.3
11,CSc1ncc(-c2ccc(Cl)cc2)[nH]1,4.48
12,Cc1nnc(SCC(=O)N/N=C/c2cc(Cl)c(O)c(Cl)c2)s1,11.6
13,Cc1csc(NC(=O)c2cccc([N+](=O)[O-])c2C(=O)O)n1,13.5
14,O=C(NN=C(Cc1ccccc1)Cc1ccccc1)c1ccccc1F,12.1
15,CC(C(=O)N1CCc2ccccc21)N(C)CC(=O)Nc1cccc(F)c1 (stereo not shown),-0.982
16,Cn1nc(C(=O)Nc2cccc(C(=O)NC3CC3)c2)c2ccccc2c1=O,4.45
17,O=C(NCCS(=O)(=O)N1CCN(c2ccc(F)cc2)CC1)c1ccco1,-22.7
18,CC(=O)c1c(C)[nH]c(C(=O)OCC(=O)NCc2ccc(Cl)cc2)c1C,7.96
19,Cc1ccc(S(=O)(=O)NCc2cn3ccccc3n2)c(C)c1,14.9
20,COc1ccccc1NC(=O)c1sc2nc(Cc3ccccc3)cc(C(F)(F)F)c2c1N,-0.71
21,COc1ccccc1C(=O)C1CCCN(C(=O)c2cc(C(C)C)no2)C1 (stereo not shown),-0.256
22,COc1ccc(C(=O)NC(=S)NCc2ccc(-c3nc4ccccc4o3)cc2)cc1OC,8.57
